According to PubChem BioAssay AID624417 (National Center for Advancing Translational Sciences (NCATS), 2012):
In all, about 410,000 compounds went through this assay and about 6,400 (1.6%) were called active. The shares of active, inactive and inconclusive entries below differ from those in the screen. Calls follow the shape of the dose curve; as a rule, active = well fitted inhibition curve with a large enough effect; inconclusive = small, poorly fitted or top-dose-only effect; inactive = no such curve, though single readings can be large or run the other way. Potencies of inconclusive entries are left out as doubtful fits.

What follows are molecules tested against Glucagon-like peptide 1 receptor (Homo sapiens) (UniProt P43220) (assay: qHTS of GLP-1 Receptor Inverse Agonists (Inhibition Mode)). Conditions: HEK293 GLP-1R CRE-luciferase, luminescence, 24 h, GLP-1R form is constitutively active; activity change, negative = inhibition: at 38.3 µM (top of the series) unless noted.
Chain of UniProt P43220 (P43220 whole entry, looked up): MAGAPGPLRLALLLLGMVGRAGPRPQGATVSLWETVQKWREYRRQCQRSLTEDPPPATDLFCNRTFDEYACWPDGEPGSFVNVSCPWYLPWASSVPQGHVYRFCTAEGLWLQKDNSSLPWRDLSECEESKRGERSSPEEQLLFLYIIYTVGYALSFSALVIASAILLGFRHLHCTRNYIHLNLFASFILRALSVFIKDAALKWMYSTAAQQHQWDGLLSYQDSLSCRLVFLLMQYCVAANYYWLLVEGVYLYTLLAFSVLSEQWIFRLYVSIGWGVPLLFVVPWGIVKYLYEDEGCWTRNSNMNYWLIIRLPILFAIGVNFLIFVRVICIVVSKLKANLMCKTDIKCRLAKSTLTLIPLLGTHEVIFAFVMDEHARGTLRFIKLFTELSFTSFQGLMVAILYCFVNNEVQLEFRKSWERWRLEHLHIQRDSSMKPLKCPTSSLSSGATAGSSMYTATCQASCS
Method in brief: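 Readout was luciferase luminescence, measured 12 min after detection reagent at room temperature. Beforehand, GLP-1R reporter HEK293 cells had sat 12 h, then received compounds for 24 hr at 37 deg C.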
% is scaled to controls: 0 for no effect and ±100 for the full control effect; potency is read from the fitted curve at half-maximal effect; tags tell the direction and shape of the fitted curve.
Also: nearly all actives have a fitted effect of over 55% in size.

SMILES	Potency	activity change, negative = inhibition
O=C(Nc1ccc2c(c1)OCCO2)c1[nH]c(C(F)(F)F)nc1-c1ccccc1	inconclusive [inhibitor, partial curve, poor fit]	
C=CCn1c(SCC(=O)Nc2cc3oc4ccccc4c3cc2OC)nnc1-c1cnccn1		inactive: 0.508%
Cc1cccc(NC(=O)C2CCN(S(=O)(=O)c3ccc4c(c3)OCCCO4)CC2)n1		inactive: -19.4%
COc1ccccc1C1CC(=O)NC(C)=C1C(=O)OCC(C)C (stereo not drawn)	inconclusive [inhibitor, partial curve, poor fit]	
CCOc1ccccc1NC(=O)CSc1nc2nc(-c3cccs3)cc(C(F)(F)F)c2c(=O)[nH]1	inconclusive [inhibitor, partial curve, poor fit]	
Cc1cccc(CC(=O)Nc2ccc3nc(N4CCC(C)CC4)cc(C)c3c2)c1		inactive: -12%
CC(C)c1ccc(OCc2ccc(C(=O)N3CCN(c4ccccn4)CC3)cc2)cc1	inconclusive [inhibitor, partial curve, poor fit]	
COc1ccc2sc(-c3ccc(N(C)C)cc3)c(C#CCCO)c2c1		inactive: 6.75%
O=S(=O)(c1ccccc1)c1cnc(-c2ccccc2)nc1N1CCCC1	inconclusive [inhibitor, single point]	
Cc1cccc(NS(=O)(=O)c2cc(C(=O)N3CCc4ccccc4C3)ccc2Cl)c1C	inconclusive [inhibitor, partial curve]	
COc1ccc(/C=N/Nc2nc(Nc3ccccc3)nc(N3CCCCC3)n2)cc1OC	inconclusive [inhibitor, partial curve, poor fit]	
COc1ccc(C(=O)OCC(=O)NC(=O)NC2CCCC2)cc1[N+](=O)[O-]		inactive: -30.3%
COc1ccccc1N1CCN(C2CCCN(C(=O)c3cccc(-c4ccco4)c3)C2)CC1 (stereo not drawn)	inconclusive [inhibitor, partial curve, poor fit]	
COc1ccccc1-c1cc2nc(C)c(CCC(=O)NCCc3cccc(C)c3)c(C)n2n1	inconclusive [inhibitor, single point]	
CCCOc1ccc(C(=O)Nc2ccc3c(c2)OCO3)cc1	inconclusive [inhibitor, single point]	
COc1ccc(-c2cn3nc(N4CCC(C(=O)Nc5cc(Cl)ccc5C)CC4)sc3n2)cc1		inactive: 12.3%
COc1cc(CN2CCN(Cc3ccc([N+](=O)[O-])cc3)CC2)c([N+](=O)[O-])cc1OC	inconclusive [inhibitor, partial curve, poor fit]	
COc1cnc(-c2ccccc2)nc1Oc1ccccc1C	inconclusive [inhibitor, single point]	
CC(C)c1cc(C(=O)NNC(=S)NC2CCCCC2)cs1	inconclusive [inhibitor, single point]	
COc1ccc(NC(=O)CCCn2c(=O)c3cccn3c3cccnc32)cc1Cl		inactive: 14.4%
Cc1ccc(N2NC3(CCN(C(N)=O)CC3)NC2=O)cc1	inconclusive [inhibitor, partial curve, poor fit]	

SMILES	Potency	activity change, negative = inhibition
Cc1ccc(Cn2ccc(NC(=O)CCSc3nc(-c4ccco4)cc(C(F)(F)F)n3)n2)cc1	inconclusive [inhibitor, single point]	
CC(C)(C)c1ccc(OCC(=O)NCC2(N3CCOCC3)CCCCC2)cc1	inconclusive [inhibitor, single point]	
CC(C)(C)c1ccc(/C=C2\SC(=O)N(CCNC(=O)c3cccc(S(=O)(=O)N4CCOCC4)c3)C2=O)cc1	inconclusive [inhibitor, full curve, poor fit]	
Cc1nonc1C(=O)N1CCCC(Nc2ccc(C(C)C)cc2)C1 (stereo not drawn)	inconclusive [inhibitor, partial curve, poor fit]	
CCCN(CC(=O)Nc1ccccc1C)C(=O)CCNC(=O)c1ccccc1Cl	inconclusive [inhibitor, single point]	
Nc1ncccc1OCc1ccc(Cl)c(Cl)c1	inconclusive [inhibitor, partial curve, poor fit]	
Cc1ccc(NC(=O)CN(C)C(=O)CCSc2ccc(F)cc2)cc1	inconclusive [inhibitor, single point]	
COc1ccccc1NC(=O)Nc1cc(NC(=O)Nc2ccccc2OC)c(C)nc1C	inconclusive [inhibitor, single point]	
COc1cc(SC)ccc1C(=O)Nc1cc(C)ccn1	inconclusive [inhibitor, single point]	
Cc1ccc(NC(=O)CN(C)CC(=O)NC2CCCc3ccccc32)cc1 (stereo not drawn)	inconclusive [inhibitor, single point]	
COc1ccccc1-c1noc(CCCC(=O)Nc2cccc(C(F)(F)F)c2)n1	inconclusive [inhibitor, single point]	
O=C(Nc1ccc(Oc2ccc3ccccc3c2)cc1)c1ccco1	inconclusive [inhibitor, partial curve, poor fit]	
COc1ccc(C2=Nc3ccccc3N(C(=O)c3ccc(C(F)(F)F)cc3)C2C(=O)Nc2ccc3c(c2)OCCO3)cc1 (stereo not drawn)	inconclusive [inhibitor, single point]	
Cc1cc(C)cc(NC(=O)c2ccc([N+](=O)[O-])o2)c1	inconclusive [inhibitor, single point]	
O=C(NC1CCCCC1)c1nc(C2CCNCC2)oc1-c1ccccc1	inconclusive [inhibitor, single point]	
COc1ccc2c(CN3CCCC3)cc(=O)oc2c1		inactive: 25.1%
CCOc1ccc(NC(=O)NC2CCCCCCC2)cc1	inconclusive [inhibitor, partial curve, poor fit]	
Cc1cc(C)c(C2C(C#N)=C(N)Oc3n[nH]c(C)c32)cc1CN1CCCC1 (stereo not drawn)		inactive: 0%
S=C(NCc1ccccc1)Nc1cccc(Cl)c1	inconclusive [inhibitor, partial curve, poor fit]	
O=C(NNc1nc2ccc(F)cc2s1)c1cccc(F)c1	inconclusive [inhibitor, single point]	
O=C(Nc1cccc(Cl)c1)N1CCc2ccccc2C1	inconclusive [inhibitor, single point]	

SMILES	Potency	activity change, negative = inhibition
O=C(NNC(=S)NCC1CCCO1)c1cc(Br)ccc1Cl (stereo not drawn)		inactive: -0.897%
COC(=O)c1cc(S(=O)(=O)NCC2CCN(CCc3cccs3)CC2)cn1C	inconclusive [inhibitor, single point]	
COC(=O)[C@]12CCCCC=C1N(CCC1=CCCCC1)C(=O)[C@H](CC(=O)N1CCCC1)C2	inconclusive [inhibitor, partial curve, poor fit]	
CCO[C@@H]1OC(C(=O)NCc2nc3ccccc3[nH]2)=C[C@H](c2ccc(C(F)(F)F)cc2)[C@H]1CCCO	inconclusive [inhibitor, partial curve, poor fit]	
CC(C)C(=O)Nc1cccc(NC(=O)c2cc3ccccc3o2)c1		inactive: -22.9%
CCCCCCOC(=O)/C=C/c1c(C)[nH]c(=O)[nH]c1=O		inactive: 12%
O=C(CNC(=O)c1ccco1)Nc1ccc(Cl)cc1		inactive: 13.8%
CN1CCC(N(C)C(=O)CCc2nc3ccccc3n2-c2ccccc2)CC1	inconclusive [inhibitor, single point]	
COC(=O)C1=C(CSc2nc3ccccc3s2)NC(=O)NC1c1ccc(F)cc1 (stereo not drawn)	inconclusive [inhibitor, full curve, poor fit]	
O=C(NCc1ccc(F)cc1)C(=O)c1cn(CC(=O)N2CCCC2)c2ccccc12	inconclusive [inhibitor, single point]	
Cn1nc(C(C)(C)C)c([N+](=O)[O-])c1C(=O)Nc1cccc2ccccc12	inconclusive [inhibitor, partial curve, poor fit]	
CCOC(=O)c1cc(-c2ccccc2C)nn1CC1CC(c2cccnc2)=NO1 (stereo not drawn)	inconclusive [inhibitor, single point]	
COc1ccc(S(=O)(=O)N2CCCCC2)cc1NC(=O)Cc1cccs1		inactive: 18.7%
Cc1cc(Cl)c(OCCCN2CCCCC2)c(Br)c1	inconclusive [inhibitor, single point]	
CC(C)C[C@H]1CNC(=S)N1C[C@H]1CCCN1C[C@H](CC(C)C)N1C[C@H](Cc2ccccc2)N(CCc2ccccc2)C1=S	inconclusive [inhibitor, full curve, poor fit]	
C=CCSc1nc(C)c(CCC(C)C)c(=O)[nH]1	inconclusive [inhibitor, single point]	
O=C(Cc1ccccc1)NC(=S)Nc1ccc(N2CCCCC2)cc1	inconclusive [inhibitor, single point]	
CC(=O)c1cccc(NC(=O)CN(c2cc(C)cc(C)c2)S(=O)(=O)c2c(C)noc2C)c1	inconclusive [inhibitor, partial curve, poor fit]	
CCOC(=O)C1(Cc2ccccc2Cl)CCN(C(=O)c2cc(C)on2)CC1	inconclusive [inhibitor, single point]	
COc1ccc(C(CCc2cc(OC)c(OC)c(OC)c2)NC(C)=O)cc1 (stereo not drawn)		inactive: 9.1%
CCOC(=O)C1(Cc2ccccc2)CCN(Cc2ccc(C)s2)CC1	inconclusive [inhibitor, partial curve, poor fit]	
